The values that follow come from PubChem BioAssay AID1508642 (National Center for Advancing Translational Sciences (NCATS), 2021).

Screen size: about 43,000 compounds; about 200 (0.47%) were called active. Another 12% or so got no clear call; they are omitted. Calls come from the whole dose curve; as a rule, active = well fitted cell-killing curve with a large enough effect; inconclusive = small, poorly fitted or top-dose-only effect, or effect the other way; inactive = flat fitted curve, though single readings scatter. This is one part of the list.
% is set by controls: 0 for no effect and ±100 for the full control effect.

A short description of this experiment: Cell viability qHTS assay in S16 Pmp22-F2sN cells. Note: nearly all actives have a fitted effect of over 65% in size. To be noted: S16 Pmp22-F2sN Schwann cells (luciferase reporters placed in the Pmp22 gene) viability, CellTiter-Glo, 24 h; series mostly up to 57.5 µM; activity change, negative = cytotoxicity: at the top concentration. Summed up: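 CellTiter-Glo counter-screen, qHTS, 1536-well. Cells: S16(c9) Pmp22-F2sN, 500-1,000/well in DMEM + 10% FBS. Cpd 23 nL pin transfer, 24 h, 37C/5% CO2. Read: luminescence, CCD imager.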
Take `COc1ccccc1CNC(=O)CCCCn1c(=O)c2ccccc2n(CC(=O)Nc2cc(Cl)ccc2C)c1=O`: the “activity change, negative = cytotoxicity” value is inactive: -0.985%. For the compound `O=C(O)CCc1ccc(-c2ccccc2)n1CC(=O)Nc1ccccc1C(F)(F)F`, the “activity change, negative = cytotoxicity” value is inactive: 6.43%. `COc1ccc2c(c1)c1c(c(=O)n(-c3ccccc3C)c(=O)n1CC(=O)Nc1c(C)cccc1C)n2C`: the “activity change, negative = cytotoxicity” value was inactive: -1.18%.

In the case of `Cc1ccccc1Nc1nn2c(=O)c3ccc(C(=O)N4CCCC(C)C4)cc3nc2s1` (stereo not drawn), the “activity change, negative = cytotoxicity” value was inactive: 1.56%.

In the case of `O=c1c2[nH]c3ccccc3c2nc(SCc2cccc(F)c2)n1-c1ccccc1`, the “activity change, negative = cytotoxicity” value is inactive: 4.26%. `Cc1ccc(-c2ccc(=O)n(CC(=O)NCc3ccc(F)cc3)n2)cc1`: the “activity change, negative = cytotoxicity” value is inactive: -0.087%. For the compound `CCC(C)NC(=O)C1CCC(CNS(=O)(=O)c2ccc(Cl)cc2)CC1` (stereo not drawn), the “activity change, negative = cytotoxicity” value is inactive: -8.29%. With `COc1ccc(-c2nc3n(n2)C(=O)CC(c2ccc(Cl)cc2)S3)cc1` (stereo not drawn) the figure was inactive: 3.05%; with `CCn1c2ccccc2c2cc(NC(=O)COc3ccc(C)c(C)c3)ccc21`, inactive: -3.37%; with `Cc1ccc2nc3c(cc(C(=O)NC4CCCCC4)c(=N)n3C(C)C)c(=O)n2c1`, inactive: 6.86%.

For the compound `CCOC(=O)c1ccc(NC(=O)CC2NCCNC2=O)cc1` (stereo not drawn), the “activity change, negative = cytotoxicity” value is inactive: -10.7%. For `CCOC(=O)C1CCN(S(=O)(=O)c2ccc3c(c2)NC(=O)C(C)C(=O)N3)CC1` (stereo not drawn), the “activity change, negative = cytotoxicity” value was inactive: 0.994%. Consider `COC(=O)c1c(NC(=O)COc2cc(C)ccc2C(C)C)sc2c1CCC(C)C2` (stereo not drawn), for which the “activity change, negative = cytotoxicity” value was inactive: 6.64%. Under `CC(=O)c1ccc(N2CCN(S(=O)(=O)c3ccc(-c4cc(C)no4)s3)CC2)cc1` stands inactive: -3.15%; under `Cc1cc(C)c(S(=O)(=O)n2cnc(C)c2)c(C)c1`, inactive: 12.3%. As for `COC(=O)c1ccc(NC(=O)C2CCN(C(=O)c3ccc(F)cc3)CC2)cc1`, the “activity change, negative = cytotoxicity” value is inactive: 15.2%.

As to `N#Cc1cccc(NC(=O)C2CCN(c3ncccn3)CC2)c1`, the “activity change, negative = cytotoxicity” value is inactive: 12.7%. Under `CCS(=O)(=O)CCSc1nc(-c2ccc(Br)cc2)cc(-c2ccccc2)c1C#N` stands inactive: 11.7%; under `Cc1cccc(NC(=O)CCn2nc(-c3ccccc3)c3ccccc3c2=O)c1`, inactive: -11.6%; under `CC1=C(C(=O)Nc2ccccc2C)C(c2cccnc2)n2nc(SCc3ccccc3F)nc2N1` (stereo not drawn), inactive: 17%. With `O=C(CCn1c(=O)c2cccn2c2cccnc21)N1CCN(c2cccc(Cl)c2)CC1` the figure was inactive: 1.61%; with `CCc1ccc(OCC(=O)N(Cc2ccc(OC)cc2)C2CCS(=O)(=O)C2)cc1` (stereo not drawn), inactive: 10.1%; with `CN1C(=O)Cc2cc(S(=O)(=O)NCCc3ccccc3)ccc21`, inactive: 3.85%. Under `COc1ccc(NC(=O)C2CCCN2S(=O)(=O)c2ccc3nc(-c4ccccc4)[nH]c3c2)cc1` (stereo not drawn) stands inactive: 10.5%; under `COc1ccc(CCNC(=O)c2ccc3c(c2)N(Cc2ccc(Cl)cc2)CCS3)c(OC)c1`, inactive: -10.4%; under `CCOC(=O)c1cc(-c2ccc(C)cc2)n(CCC(=O)Nc2ccc(OC)c(OC)c2)c1C`, inactive: -17.4%. For the compound `COCCCNC(=O)Cn1cnc2sc(C)c(S(=O)(=O)N3CCN(c4ccccc4OC)CC3)c2c1=O`, the “activity change, negative = cytotoxicity” value is inactive: -2.54%.

For `CCN1CCN(C(=O)c2ccc3c(c2)N(Cc2cccc(F)c2)C(=O)c2ccccc2S3)CC1`, the “activity change, negative = cytotoxicity” value is inactive: -0.459%. Under `COc1ccc(-c2nc3sc(CCNC(=O)C(=O)Nc4c(C)cccc4C)c(C)n3n2)cc1` stands inactive: 0.967%; under `CC1CCCN(CCCNC(=O)CN2C(=O)CSc3ccc(S(=O)(=O)N4CCOCC4)cc32)C1` (stereo not drawn), inactive: 19%; under `COc1ccc(N2CCN(C(=O)c3oc4ccccc4c3NC(=O)c3ccccc3OC)CC2)cc1`, inactive: -3.3%.

Take `CCOc1ccccc1NC(=O)Cn1nnc(C(=O)Nc2ccc(C)c(C)c2)c1N`: the “activity change, negative = cytotoxicity” value is inactive: 1.44%. With `Cc1c(C(=O)N2CCC(C)CC2)c(S(=O)(=O)N2CCN(c3ccc(Cl)cc3)CC2)c(C)n1C`, the “activity change, negative = cytotoxicity” value is inactive: 0.676%. Regarding `CC(C)(C)OC(=O)N1CCC(c2c(C(=O)NC3CCCCC3)cnn2-c2cccc(Cl)c2)CC1`, the “activity change, negative = cytotoxicity” value was inactive: -6.79%. Under `Cn1nccc1C(=O)NCc1ccc2c(c1)CCN2C(=O)c1ccccc1` stands inactive: 6%.

For `Cc1ccc(Cl)cc1N1CCN(S(=O)(=O)c2cc3[nH]c(=O)c(=O)[nH]c3cc2C)CC1`, the “activity change, negative = cytotoxicity” value was inactive: 4.22%. Turning to `O=C(Cn1c(=O)oc2cc(S(=O)(=O)NC3CCCC3)ccc21)Nc1ccc(F)c(F)c1`, the “activity change, negative = cytotoxicity” value was inactive: 0.0318%. Regarding `COc1cccc(C2CC(=O)Nc3c2c(=O)nc2c(C)cccn32)c1OC` (stereo not drawn), the “activity change, negative = cytotoxicity” value was inactive: 6.72%. As for `Cc1ccc(-c2nc3cc(Cl)ccc3o2)cc1NC(=O)COc1ccc(F)cc1`, the “activity change, negative = cytotoxicity” value is inactive: 12.3%. For `CC1=C(C(=O)OC2CCCC2)C(c2ccccc2Cl)CC(=O)N1` (stereo not drawn), the “activity change, negative = cytotoxicity” value was inactive: 3%. With `CCOC(=O)c1ccc(NC(=O)CN2C(=O)COc3ccc(Cl)cc32)cc1` the figure was inactive: 1.53%.

As for `Cc1cccc(C(=O)Nc2ccccc2SCc2cc(=O)c3cccc(C)c3[nH]2)c1`, the “activity change, negative = cytotoxicity” value was inactive: -13.4%. Under `Cc1nnc(N2CCN(c3ccccc3F)CC2)c2c1nnn2Cc1ccccc1` stands inactive: -18.4%.

`COc1ccc(NC(=O)CCn2cccn2)cc1OC`: the “activity change, negative = cytotoxicity” value is inactive: -0.947%. Under `CCOCCc1nn2c(=O)cc(COC(=O)C(CC)c3ccccc3)nc2s1` (stereo not drawn) stands inactive: 9.42%; under `CCCn1cc(S(=O)(=O)c2ccc(CC)cc2)c(=O)c2ccccc21`, inactive: -1.83%; under `Cc1ccc2occ(-c3cc(-c4ccc(Cl)cc4)nc4c3COc3ccccc3-4)c(=O)c2c1`, inactive: 17.5%. Take `Cc1ccc(N(C)C(=O)C2CCCN(c3ncnc4c3nc3n4CCCCC3)C2)cc1C` (stereo not drawn): the “activity change, negative = cytotoxicity” value is inactive: -26.8%.
